Source: publication PMC4336329 (PLoS ONE, 2015)
The whole screen tested about 310,000 compounds, of which about 14,000 (4.5%) showed an effect of 50% or more. Effects have a minus sign here. The list shows a part of the results.

target: human ether-à-go-go-related gene (hERG) potassium channel (human, UniProt Q12809); assay: primary screen, population patch clamp on CHO cells stably expressing hERG
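Also: peak tail current of the secondary pulse compared with the same well before compound.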

Chain of human ether-à-go-go-related gene (hERG) potassium channel (Q12809 whole entry, looked up): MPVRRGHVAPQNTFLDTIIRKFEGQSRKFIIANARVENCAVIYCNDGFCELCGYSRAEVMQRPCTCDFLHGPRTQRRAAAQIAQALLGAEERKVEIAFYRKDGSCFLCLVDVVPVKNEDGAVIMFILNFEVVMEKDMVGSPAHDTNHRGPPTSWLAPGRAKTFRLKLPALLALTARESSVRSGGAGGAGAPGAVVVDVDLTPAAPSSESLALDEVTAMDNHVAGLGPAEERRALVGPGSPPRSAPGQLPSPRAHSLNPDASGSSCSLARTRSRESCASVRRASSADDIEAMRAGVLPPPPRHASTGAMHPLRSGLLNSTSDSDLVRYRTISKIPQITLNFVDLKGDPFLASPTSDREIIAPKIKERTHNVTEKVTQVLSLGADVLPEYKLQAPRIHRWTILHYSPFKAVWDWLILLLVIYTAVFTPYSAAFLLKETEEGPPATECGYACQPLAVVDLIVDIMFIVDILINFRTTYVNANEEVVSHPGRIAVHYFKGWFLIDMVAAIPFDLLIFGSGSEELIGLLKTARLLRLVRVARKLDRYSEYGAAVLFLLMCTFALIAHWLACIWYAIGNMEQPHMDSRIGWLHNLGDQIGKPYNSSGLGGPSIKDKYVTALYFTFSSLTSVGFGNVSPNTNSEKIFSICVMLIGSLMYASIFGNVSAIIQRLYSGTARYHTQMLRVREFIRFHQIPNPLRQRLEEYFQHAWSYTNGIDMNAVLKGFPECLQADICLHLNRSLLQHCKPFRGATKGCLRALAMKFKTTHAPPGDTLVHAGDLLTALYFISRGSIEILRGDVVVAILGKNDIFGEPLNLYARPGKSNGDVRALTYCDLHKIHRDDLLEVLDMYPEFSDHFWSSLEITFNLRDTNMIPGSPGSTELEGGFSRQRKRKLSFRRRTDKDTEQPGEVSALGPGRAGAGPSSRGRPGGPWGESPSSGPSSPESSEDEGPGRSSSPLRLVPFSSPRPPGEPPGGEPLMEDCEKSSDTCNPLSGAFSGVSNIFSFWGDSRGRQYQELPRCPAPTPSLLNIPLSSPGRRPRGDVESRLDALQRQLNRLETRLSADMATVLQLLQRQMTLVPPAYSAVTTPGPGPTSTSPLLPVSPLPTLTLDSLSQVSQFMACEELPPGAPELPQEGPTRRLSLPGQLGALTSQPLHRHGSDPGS

Compound	hERG current change (%, negative = inhibition) at 10uM [%]
O=C(Nc1ccc(Br)cc1)N1C[C@H]2C[C@@H](C1)c1cccc(=O)n1C2	-0.768
Cc1cc(C)c(NC(=O)COC(=O)C2CCC2)c(Cl)c1	22.8
Cc1ccc(/C=C2\SC(=S)N(CCCC(=O)Nc3cccnc3)C2=O)cc1	0.424
Cc1ccc(CC(=O)N2CCC(c3nc4c(nnn4Cc4ccccc4)c(=O)[nH]3)CC2)cc1	-22.7
COc1ccccc1C(=O)Nc1ccc2c(c1)nc1n2CCN(Cc2ccccc2)C1	-10
COc1ccc(OCc2nnc(SCC(=O)N3C(C)CCCC3C)o2)cc1 (stereo not drawn)	-14.7
Cc1cc(C)c(NC(=O)CCN2CCN(Cc3ccccc3)CC2)c(C)c1	-33
NC(=O)NC(=O)CSc1nnc(-c2ccco2)n1Cc1ccccc1	5.78
CC(C(=O)Nc1ccccc1C(=O)O)n1c(C(F)(F)F)nc2ccccc21 (stereo not drawn)	8.68
COc1ccccc1CNC(=O)CCNC(=O)Cn1cnc2ccccc2c1=O	12.1
Cc1cc(C)c(S(=O)(=O)N(C)c2ccccc2)c(C)c1	-3.24
COc1ccc(Cc2nnc(Nc3ccccc3OC)[nH]c2=O)cc1	10.6
O=C(NCC(=O)N1CCN(c2ccccc2O)CC1)c1ccc(Br)o1	-4.93
Cc1ccccc1C(C(=O)NC1CCCCC1)N(C(=O)c1ccccn1)c1cccnc1 (stereo not drawn)	5.92
Cc1ccc(C)c(S(=O)(=O)N2CCN(C(=O)c3cnccn3)CC2)c1	1.38
CCOCCCNC(=O)C(NC(=O)c1ccccc1O)c1ccccc1 (stereo not drawn)	7.92
O=C(CCn1cnc(-c2ccccc2)c1-c1ccccc1)N/N=C/c1ccc(O)cc1	-23.9
CC(=O)NNC(=O)c1sc(=S)n2c1[nH]c(=O)c1sccc12	18.7
CC1CC(=O)Nc2ccccc2N1C(=O)CN1CCN(C=O)CC1 (stereo not drawn)	12.4
CN(C)c1ccc(CNC(=O)c2cc(S(=O)(=O)N3CCOCC3)cn2C)cc1	-7.48
CC(C)CCNC(=O)C1(O)c2ccccc2NC(=O)N1c1ccc(Cl)cc1 (stereo not drawn)	18.9
N#Cc1c(-c2cccs2)cc(C2CC2)nc1SCC(N)=O	-0.255
O=C(CSc1ccc(F)cc1)NCCc1ccc(Cl)cc1	0.223

Compound	hERG current change (%, negative = inhibition) at 10uM [%]
CCN(CCn1cccn1)C(=O)CC1C(=O)NCCN1Cc1ccc(F)c(F)c1 (stereo not drawn)	9.44
Cc1cc(C)c2cc(C#N)c(N3CCCN(S(=O)(=O)c4ccccc4)CC3)nc2c1	2.07
COc1ccccc1NC(=O)C(C/C=C(/C)Cl)C(C)=O (stereo not drawn)	-8.18
CC1Cc2ccccc2N1c1ncnc2nc[nH]c12 (stereo not drawn)	-6.58
CN(Cc1ccccc1)C(=O)c1ccccc1Br	-6.53
COc1ccc2nc3ccccc3nc2c1N	4.42
Cc1nc(Cl)sc1C(=O)Nc1cccc(Cl)c1C	-2.08
O=C(c1ccc(S(=O)(=O)N2CCCCC2)cc1)N1CCN=C1SCc1cccnc1	-4.75
O=C(NC(=S)NNC(=O)c1ccco1)c1ccc(Br)cc1	15.6
CC(=O)N(Cc1cc2cc(C)ccc2[nH]c1=O)c1cccc(C)c1C	21.6
COc1cc(-c2ccc(=O)[nH]n2)ccc1OC(F)F	-0.566
Cc1ccc(S(=O)(=O)NCc2ccc(C(=O)N3CCCC3)cc2)cc1	-7.85
CC1(C)Cc2c(cnn2-c2cccc(F)c2)C(NC(=O)CCN2CCCC2=O)C1 (stereo not drawn)	-3.51
CCOc1cc(/C=N/NC(=S)Nc2ccccc2C(F)(F)F)ccc1OCC(=O)N1CCOCC1	-8.18
O=C(O)C1CCCCC1C(=O)Nc1nccs1 (stereo not drawn)	3.38
CCOC(=O)/C=C/C(=O)Nc1cccc([N+](=O)[O-])c1	-7.8
CCN(CC)S(=O)(=O)c1cccc(C(=O)NCC(=O)OCC(=O)NCc2ccccc2)c1	-7.41
CCOC(=O)N1CCC(N(CCOC)C(=S)Nc2cccc(SC)c2)CC1	-27.2
O=C(NC1CCCc2ccccc21)c1ccc2c(c1)OCO2 (stereo not drawn)	-15.8
Cc1cc(C)n(CC(O)COc2ccccc2)n1 (stereo not drawn)	12.9
N#C/C(=C(/O)C(Cl)(Cl)Cl)c1nc2ccccc2[nH]1	8.77
O=C(Nc1ccc(Cl)cc1C(=O)c1ccccc1)c1ccco1	8.38
